Results: PubChem BioAssay AID360 (National Center for Advancing Translational Sciences (NCATS), 2006)
Among all 48,000 compounds or so, about 550 (1.1%) were called active. Not shown: some 4% with an inconclusive outcome. Cut-off read from the data, not from the text of the source: active = potency below about 15 µM; inconclusive = mostly about 16 µM to 33 µM; inactive = weaker than that. Some of the results follow.

biological target: Lysosomal acid glucosylceramidase (Homo sapiens) (UniProt P04062); assay: Glucocerebrosidase; settings: purified enzyme, resorufin glucoside fluorescence (screen aimed at inhibitors), 20 min;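 note: the screen sought inhibitors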
UniProt P04062, sequence (P04062 whole entry, looked up): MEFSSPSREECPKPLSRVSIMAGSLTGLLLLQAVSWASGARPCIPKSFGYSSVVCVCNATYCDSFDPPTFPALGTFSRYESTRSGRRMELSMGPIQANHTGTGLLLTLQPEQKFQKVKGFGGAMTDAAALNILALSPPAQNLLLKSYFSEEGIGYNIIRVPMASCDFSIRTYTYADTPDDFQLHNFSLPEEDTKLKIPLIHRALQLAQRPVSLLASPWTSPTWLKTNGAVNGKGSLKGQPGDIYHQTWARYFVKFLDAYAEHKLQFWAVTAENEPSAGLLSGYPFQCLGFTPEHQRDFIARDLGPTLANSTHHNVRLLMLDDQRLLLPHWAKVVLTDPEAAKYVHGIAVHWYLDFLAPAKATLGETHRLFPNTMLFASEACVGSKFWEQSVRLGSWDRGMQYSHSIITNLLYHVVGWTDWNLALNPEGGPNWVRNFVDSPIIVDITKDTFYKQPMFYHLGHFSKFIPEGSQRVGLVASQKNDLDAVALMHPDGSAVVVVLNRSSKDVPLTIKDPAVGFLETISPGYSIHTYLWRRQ
Procedure, shortened: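 Wild-type enzyme at 0.2 nM final in 50mM citric acid/KH2PO4, 10mM sodium taurocholate, 0.01% tween-20, pH 5.9, with resorufin beta-D-glucopyranoside at 30 uM final. Compounds titrated, 20 min at RT, red fluorescence read; AC50 from titration.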
Potency is the fitted concentration of half-maximal effect.

Potency, inactive:
O=C(CN1CCN(c2nc(-c3ccc(F)cc3)cs2)CC1)Nc1ccc2c(c1)OCO2 > 76.9 µM
COCCn1c(SCC#N)nnc1-c1ccc2c(c1)OCO2 > 76.9 µM
Cn1c(Cc2cccs2)n[nH]c1=S > 76.9 µM
Cc1ccc(-n2c(Cc3cccn3C)nnc2SCC(=O)N2CCc3ccccc32)cc1 > 76.9 µM
CSc1ccc(-c2nc(CSCC(=O)N3CCOCC3)c(C)o2)cc1 > 76.9 µM
Cn1c(=O)c2c(nc(Br)n2CCCc2ccccc2)n(C)c1=O > 76.9 µM
O=c1c2ccccc2oc2nc(-c3ccco3)n(Cc3ccccc3)c(=O)c12 > 76.9 µM
CC(=O)NCc1ccc(C(=O)CSc2nnc(-c3ccncc3)n2Cc2ccccc2)o1 > 76.9 µM
CN1C(=O)CC(C(=O)O)SC1=Nc1cccc(C(F)(F)F)c1 (configuration not stated) > 76.9 µM
CCOc1cccc(NC(=O)CSc2nncn2N)c1 > 76.9 µM
C=CCn1c(-c2c[nH]c3ccccc23)n[nH]c1=S > 76.9 µM
S=c1[nH]ncc2ccccc12 > 76.9 µM
O=S1(=O)CCC(S(=O)(=O)N2CCCCCC2)C1 (configuration not stated) > 76.9 µM
CC(=O)Nc1cnn(Cc2ccc(Br)cc2)c1 > 76.9 µM
COc1cc(NC(=O)c2cc(C)on2)cc(OC)c1OC > 76.9 µM
COc1ccccc1-n1nc(C(=O)NCc2ccco2)c2ccccc2c1=O > 76.9 µM
O=C(COC(=O)c1ccccn1)Nc1ccccc1Cl > 76.9 µM
CSc1nnc(-c2cnccn2)n1C > 76.9 µM
CCC(=O)N1CCc2cc(S(=O)(=O)CCC(=O)NCc3ccc4c(c3)OCO4)ccc21 > 76.9 µM
Cc1ccc(S(=O)(=O)N2CCOCC2)cc1C(=O)Nc1ccccn1 > 76.9 µM
Cc1cc(CN(C)C)c(O)c(C2(C)CCCCC2)c1
O=C(Cc1ccccc1)NC1CCN(S(=O)(=O)c2cccc(F)c2)CC1 > 76.9 µM
O=C1CC(c2ccccc2)n2nc(NC(=O)C3CCCO3)nc2N1 (configuration not stated) > 76.9 µM
Cc1c(Cl)cccc1NC(=O)CSc1nnc(C)n1-c1ccccc1 > 76.9 µM
Cc1cc(C)c2c(n1)sc1c(O)cc(=O)[nH]c12 > 76.9 µM
CCCCCNC(=O)CCn1c(=O)oc2ccccc21 > 76.9 µM
CC(C)(CNC(=O)C1CCCC1)CNC(=O)C1CCCC1 > 76.9 µM
